# Assay results from patent US20180244730A1 (OXFORD UNIVERSITY INNOVATION, published 2018).
# B1: SpyCatcher (designed binder)
# chain: not shown
# notes: also called pDEST14-SpyCatcher (GenBank JQ478411, Addgene plasmid ID 35044)
# Target: SnoopTag-MBP
# Assay: mixing, SDS-PAGE with Coomassie staining
binder,measurement,value
B1,binding result,no binding (tested: 10 µM each)
